Molecular target: PKCtheta (Homo sapiens (Human), UniProt Q04759)
Assay: Radioisotope filter binding kinase assay
Type: biochemical
Conditions: 10 uM ATP, read-out: IC50 estimates, PKCtheta
Description: Experiment was conducted by Absorption Systems. […] The radioisotope filter binding assay is considered the gold standard for kinase profiling. The assay directly detects the true product without the use of modified substrates, coupling enzymes, or detection antibodies. Compounds are incubated with kinase, substrate, cofactors, and radioisotope-labeled ATP (^33P-Y-ATP). The reaction mixtures are then spotted onto filter papers, which bind the radioisotope-labeled catalytic product. Unreacted phosphate is removed via washing of the filter papers.
• Prepare kinase-specific substrate in freshly prepared Base Reaction Buffer (20 mM Hepes (pH 7.5), 10 mM MgCl2, 1 mM EGTA, 0.02% Brij35, 0.02 mg/ml BSA, 0.1 mM Na3VO4, 2 mM DTT, 10 µM ATP, and 1% DMSO). • Add kinase enzyme into the substrate solution and gently mix. • Add compounds in DMSO into the kinase reaction mixture by Acoustic technology (Echo550; nanoliter range), incubate for 20 minutes at room temperature. • Add ^33P-ATP (specific activity 10 μCi/μl)) into the reaction mixture to initiate the reaction. • Incubate kinase reaction for 2 hours at room temperature. • Spot reactions onto P81 ion exchange paper. • Detect kinase activity by filter-binding method.

UniProt Q04759, sequence (Q04759 whole entry): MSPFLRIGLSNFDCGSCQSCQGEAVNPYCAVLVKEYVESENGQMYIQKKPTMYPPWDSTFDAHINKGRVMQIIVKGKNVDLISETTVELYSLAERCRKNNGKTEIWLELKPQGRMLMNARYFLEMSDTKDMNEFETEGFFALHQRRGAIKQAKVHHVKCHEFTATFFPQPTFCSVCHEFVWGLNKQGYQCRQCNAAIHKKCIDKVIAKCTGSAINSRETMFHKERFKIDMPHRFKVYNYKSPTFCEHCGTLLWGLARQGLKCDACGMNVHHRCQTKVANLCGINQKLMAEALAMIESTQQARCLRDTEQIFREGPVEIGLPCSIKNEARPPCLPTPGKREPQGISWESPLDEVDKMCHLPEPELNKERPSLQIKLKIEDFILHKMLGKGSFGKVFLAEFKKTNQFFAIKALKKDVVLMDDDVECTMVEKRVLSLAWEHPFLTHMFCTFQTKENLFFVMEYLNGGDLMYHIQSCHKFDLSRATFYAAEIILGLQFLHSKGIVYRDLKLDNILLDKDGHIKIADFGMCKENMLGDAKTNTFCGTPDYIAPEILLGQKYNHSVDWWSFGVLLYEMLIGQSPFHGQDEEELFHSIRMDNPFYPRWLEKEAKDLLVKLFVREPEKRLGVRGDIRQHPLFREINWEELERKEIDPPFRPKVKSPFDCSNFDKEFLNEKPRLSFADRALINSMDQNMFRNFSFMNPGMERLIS

Row | SMILES | IC50 [µM]
1 | Cl.Cl.NCC(C(=O)Nc1ccc2cnccc2c1)c1ccc(B(O)O)cc1 (centres unmarked) [Compound 10•2HCl] | > 10
2 | Cc1ccc(C(=O)OCc2ccc([C@@H](CN)C(=O)Nc3ccc4cnccc4c3)cc2)c(C)c1 [Netarsudil dimesylate] | > 10

— patent US12479866B2, “Boron-containing rho kinase inhibitors” (Percipiad, Inc., priority 2019, dated 2025)
